Test [1] concerns the target T1, human serum albumin (human, UniProt P02768 25-609).
T1 construct: also called HSA; HSA-Sepharose
Nature of the test: capture on HSA-Sepharose, acid elution, reducing SDS-PAGE, silver stain.

The target in test [2] is T2, human Aβ1-40 peptide (human, biotin at the C-terminus (flow cytometry, Examples 2-4) or at the N-terminus (SPR, ELISA); unlabeled plus Alexa488/Alexa647-labeled in FCS).
T2 construct: synthetic peptide (AnaSpec); one entry for all labelled forms, label named under assay; also called hAβ1-40; Aβ40
The experiment in a line: SPR Biacore 2000, biotinylated peptide on SA chip, 1:1 Langmuir. On the procedure:
(§1) Kinetic constants were calculated from the sensorgrams using the Langmuir 1:1 model of BiaEvaluation software 4.1 (GE Healthcare).
(In SPR one partner is held on a chip, and binding of the other changes the refractive index at the surface.)

The target in test [3] is T3, human Aβ1-42 peptide (human, N-terminal biotin in SPR (Example 15); unlabeled in Example 7).
T3 construct: also called hAβ1-42
The test is described as above. Here is the method: as §1

Test [4] concerns the target T2, human Aβ1-40 peptide. Nature of the test: SPR ProteOn XPR36, biotinylated Aβ1-40 on Neutravidin chip, 1:1 Langmuir.

The Kd is a measure of binding affinity in units of concentration.

B1: ABPP095-PP013 (designed binder)
chain: MAGGERVYLPNLNADQLCAFIRSLEDDPSQSANLLAEAKKLNDAQAPASSSSGSSSSGRASAGGERVYLPNLNADQLCAFIRSLEDDPSQSANLLAEAKKLNDAQAPKGAPGGGGSTSLAEAKEAANAELDSYGVSDFYKRLIDKAKTVEGVEALKDAILAALP
In the case of B1, the binding result in test [1] is “binds”. Also, the Kd in test [2] is 2.7 nM; in test [3], 2.3 nM.

B2: ABPP095b-LEHHHHHH (designed binder)
chain: AGGERVYLPNLNADQLCAFIRSLEDDPSQSSELLSEAKKLSESQAPASSSSGSSSSGRASAGGERVYLPNLNADQLCAFIRSLEDDPSQSSELLSEAKKLSESQAPKLEHHHHHH
notes: scaffold mutated ABPP095
As to B2, the figures for the Kd in test [2] and in test [3] were 13 nM and 15 nM, respectively.

B3: ABPP095c-LEHHHHHH (designed binder)
chain: AGGERVYLPNLTADQLCAFIRKLEDDPSQSSELLSEAKKLSESQAPASSSSGSSSSGRASAGGERVYLPNLTADQLCAFIRKLEDDPSQSSELLSEAKKLSESQAPKLEHHHHHH
notes: scaffold mutated ABPP095
Regarding B3, the figures for the Kd in test [2] and in test [3] were 2.3 nM and 2.6 nM, respectively.

B4: ABPP095a-LEHHHHHH (designed binder)
chain: AGGERVYLPNLNADQLCAFIRSLEDDPSQSANLLAEAKKLSEAQAPASSSSGSSSSGRASAGGERVYLPNLNADQLCAFIRSLEDDPSQSANLLAEAKKLSEAQAPKLEHHHHHH
notes: scaffold mutated ABPP095
As for B4, the Kd in test [2] is 4 nM; in test [3], 5 nM.

B5: ABPP095 with C-terminal His6 tag (designed binder)
chain: AGGERVYLPNLNADQLCAFIRSLEDDPSQSANLLAEAKKLNDAQAPASSSSGSSSSGRASAGGERVYLPNLNADQLCAFIRSLEDDPSQSANLLAEAKKLNDAQAPKHHHHHH
As for B5, the equilibrium dissociation constant (Kd) in test [4] amounted to 0.34 nM; in test [2], 0.5 nM; in test [3], 0.33 nM.

The record behind these values is patent publication US20180057551A1 (AMYLONIX, published 2018).
